# Measurements reported in PMC4336329 (PLoS ONE, 2015).
# The whole screen tested about 310,000 compounds, of which about 2,200 (0.71%) showed an effect of 50% or more. The effect is printed as a negative number. This is one part of the list.
# Molecular target: human ether-à-go-go-related gene (hERG) potassium channel (human, UniProt Q12809)
# Test: primary screen, population patch clamp on CHO cells stably expressing hERG
# human ether-à-go-go-related gene (hERG) potassium channel, sequence (Q12809 whole entry, looked up): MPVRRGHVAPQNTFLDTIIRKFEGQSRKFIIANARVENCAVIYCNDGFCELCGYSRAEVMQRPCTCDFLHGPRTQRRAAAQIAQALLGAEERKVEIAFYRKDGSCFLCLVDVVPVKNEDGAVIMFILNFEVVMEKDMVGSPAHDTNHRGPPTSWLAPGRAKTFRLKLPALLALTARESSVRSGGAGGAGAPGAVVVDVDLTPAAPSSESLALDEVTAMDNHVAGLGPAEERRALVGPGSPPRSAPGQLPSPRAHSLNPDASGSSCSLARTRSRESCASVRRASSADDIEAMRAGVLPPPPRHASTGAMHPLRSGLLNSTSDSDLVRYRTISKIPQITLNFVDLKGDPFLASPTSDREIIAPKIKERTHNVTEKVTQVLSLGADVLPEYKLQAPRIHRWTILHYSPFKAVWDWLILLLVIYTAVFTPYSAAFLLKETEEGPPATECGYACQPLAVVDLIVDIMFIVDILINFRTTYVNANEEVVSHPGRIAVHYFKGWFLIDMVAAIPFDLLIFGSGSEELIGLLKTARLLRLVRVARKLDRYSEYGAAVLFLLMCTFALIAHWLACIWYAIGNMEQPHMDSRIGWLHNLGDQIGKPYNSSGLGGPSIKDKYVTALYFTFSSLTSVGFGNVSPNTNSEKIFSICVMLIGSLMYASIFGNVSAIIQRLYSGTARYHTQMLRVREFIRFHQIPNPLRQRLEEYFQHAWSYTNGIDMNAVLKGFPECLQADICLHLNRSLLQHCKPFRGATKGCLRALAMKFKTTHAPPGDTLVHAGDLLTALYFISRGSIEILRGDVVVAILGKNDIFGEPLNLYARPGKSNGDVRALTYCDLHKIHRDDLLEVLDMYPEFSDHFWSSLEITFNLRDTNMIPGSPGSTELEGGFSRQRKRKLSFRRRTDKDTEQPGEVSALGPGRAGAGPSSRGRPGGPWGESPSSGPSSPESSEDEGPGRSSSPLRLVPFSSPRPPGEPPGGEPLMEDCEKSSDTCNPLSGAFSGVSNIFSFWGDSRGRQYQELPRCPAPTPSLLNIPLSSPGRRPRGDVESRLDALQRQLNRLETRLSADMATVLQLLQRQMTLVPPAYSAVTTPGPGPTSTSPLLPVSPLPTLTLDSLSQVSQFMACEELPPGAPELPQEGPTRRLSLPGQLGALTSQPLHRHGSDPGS
row,Structure (SMILES),"hERG current change (%, negative = inhibition) at 1uM"
1,CCNS(=O)(=O)c1ccc(C)c(-n2cnnn2)c1C,1.09%
2,CCC(=O)Nc1ccc(C(=O)CSc2nnc(-c3ccc(NS(C)(=O)=O)cc3)n2C)cc1OC,12.2%
3,Cc1cc(Br)ccc1N1C(=O)CC(=O)NC1=O,8.94%
4,COc1ccc(S(=O)(=O)Nc2cc([N+](=O)[O-])ccc2OC)cc1,-4.26%
5,Cc1ccccc1OC1=NS(=O)(=O)c2ccccc21,2.4%
6,COc1cc(C(=O)Nc2ccc(S(=O)(=O)NC(C)(C)C)cc2)cc(OC)c1OC,0.32%
7,CC(=O)N1N=C(c2ccccc2)OC1c1ccc([N+](=O)[O-])s1 (centres unmarked),7.51%
8,COc1ccc(-c2csc(NC(=O)C3CSC4(C)CCC(=O)N34)n2)cc1 (centres unmarked),20.5%
9,COC(=O)C1=NNC2(c3ccc(Cl)cc3)C(=O)N(c3ccccc3)C(=O)C12 (centres unmarked),8.03%
10,CC(C)C(=O)Nc1cc2c3c(c1)CCN3C(=O)CC2,13.1%
11,Fc1ccc(CNC(=S)Nc2cccc(Cl)c2)cc1,3.96%
12,COC(=O)C1=C(N)c2ccccc2C1(C#N)c1ccccc1 (centres unmarked),3.61%
13,CCOC(=O)C1CCCN(C(=O)CC(C)c2ccccc2)C1 (centres unmarked),9.14%
14,O=C(Cn1nc(C(F)(F)F)c2c1CCC2)Nc1ccccc1C(F)(F)F,9.07%
15,COc1ccc(-c2c(C)c3cc(O)ccc3oc2=O)cc1OC,10.8%
16,CCOC(=O)c1cnc(SCc2ccc(C(C)(C)C)cc2)nc1N,8.91%
17,CCN(C(=O)CN1CCN(c2cccc(Cl)c2)CC1)c1c(N)n(Cc2ccccc2)c(=O)[nH]c1=O,5.11%
18,CCOC(=O)c1c(-c2ccc(C)o2)csc1NC(=O)CN1CCC(C(N)=O)CC1,-2.98%
19,COc1cccc(/C=N/NC(=O)c2ccc3nc[nH]c3c2)c1,13.5%
20,CC1Cc2cc(C3(O)C(=O)c4ccccc4C3=O)ccc2N1 (centres unmarked),7.72%
21,CCOC(=O)Cn1nc(C)c(NC(=O)CCc2ccc(OC)cc2)c1C,19.6%
22,Cc1ccc(NC(=S)NN(C)c2nc(C)cnc2C)cc1,11.3%

row,Structure (SMILES),"hERG current change (%, negative = inhibition) at 1uM"
1,CC(NC(=O)Cc1cccs1)c1ccncc1 (centres unmarked),1.08%
2,CC(C)C[C@H](NC(=O)OC(C)(C)C)C(=O)N[C@@H](CO)[C@H](O)[C@@H]1C[C@@H]1C(=O)NC1CCCCC1,6.78%
3,Nc1nnc(SCc2cc3c(cc2Cl)OCO3)s1,-4.6%
4,O=c1[nH]c(N2CCN(Cc3ccccc3)CC2)nc2c1CCC2,11.7%
5,Cc1cc(N2C(=O)C3C4CC(c5ccccc5)C(C4)C3C2=O)no1 (centres unmarked),12.7%
6,CCOC(=O)c1cnc2ccc(OCC)cc2c1N1CCN(c2ccccc2)CC1,12.4%
7,O=C(c1ccc(S(=O)(=O)Nc2ccc(F)cc2)cc1)N1CCN(c2ccccn2)CC1,0.658%
8,CC(C)(C)c1ccc(C(=O)NCc2nnc(SCC(=O)NC3CCCCC3)o2)cc1,12.2%
9,CCN(c1ccc(OC)cc1)c1ncnc2nc[nH]c12,2.77%
10,Cc1ccc(S(=O)(=O)N(C)C)cc1NC(=O)CCCNC(=O)c1ccc(Cl)cc1,1.3%
11,Cc1ccc(-c2ccc(C)c(N)c2C)c(C)c1N,17.4%
12,O=C(Cn1ccc2ccccc2c1=O)NCCC(=O)NC1CCN(Cc2ccccc2)CC1,9.97%
13,Cn1c(N2CCN(C(=O)NCc3ccccc3)CC2)nc2ccccc21,-18.6%
14,O=C(NNC(=O)c1ccc2nonc2c1)Nc1ccc(Cl)cc1,8.38%
15,O=C(N/N=C/c1ccc(F)cc1)c1ccccc1,20.8%
16,CN(C)CC#CCC(O)(c1ccccc1)c1ccccc1,10.4%
17,CCN(CC1CCCO1)C(=O)c1cc(COc2ccc(F)cc2F)on1 (centres unmarked),2.73%
18,Cn1c(O)c(C(c2ccccn2)c2c(O)n(C)c(=S)n(C)c2=O)c(=O)n(C)c1=S,11.6%
19,Cc1c(Cl)cccc1NC(=S)N1CCCN(Cc2ccccc2F)C1,6.31%
20,CN(C(=O)c1ccc(OC2CCN(S(=O)(=O)N(C)C)CC2)cc1)C1CCCCC1,-1.59%
21,COc1ccc2oc(C(=O)OCC(=O)NC3CCCC3)c(C)c2c1,12.8%
22,O=C(O)CCC(=O)NNC(=O)c1ccc([N+](=O)[O-])cc1,-5.96%
